We go through 84 variants from a collection of fitness landscapes (doi:10.1126/science.1257360).

The list shows a part of the results. Bounds are passed on as bounds.

Sequences and labels used below:
B1: PhoQ; a variant is named by its letters at X, in order, P23837 (parent)
chain: MKKLLRLFFPLSLRVRFLLATAAVVLVLSLAYGMVALIGYSVSFDKTTFRLLRGESNLFYTLAKWENNKLHVELPENIDKQSPTMTLIYDENGQLLWAQRDVPWLMKMIQPDWLKSNGFHEIEADVNDTSLLLSGDHSIQQQLQEVREDDDDAEMTHSVAVNVYPATSRMPKLTIVVVDTIPVELKSSYMVWSWFIYVLSANLLLVIPLLWVAAWWSLRPIEALAKEVRELEEHNRELLNPATTRELTSLVRNLNRLLKSERERYDKYRTTLTDLTHSLKTPLXXLQXXLRSLRSEKMSVSDAEPVMLEQISRISQQIGYYLHRASMRGGTLLSRELHPVAPLLDNLTSALNKVYQRKGVNISLDISPEISFVGEQNDFVEVMGNVLDNACKYCLEFVEISARQTDEHLYIVVEDDGPGIPLSKREVIFDRGQRVDTLRPGQGVGLAVAREITEQYEGKIVAGESMLGGARMEVIFGRQHSAPKDE

The test covers variants of B1. Kind of test: enrichment ratio after two sorts for PhoP signalling (ratio (wild type AVST 3.29)); higher = more functional. As to conditions: with PhoP (E. coli).
On to RYNN, for which the enrichment ratio is not above 0.25.
On to DRTQ, for which the enrichment ratio was not above 0.25.
On to IQQC, for which the enrichment ratio was not above 0.25.
YKPV: the enrichment ratio was not above 0.25.
In the case of KSEL, the enrichment ratio was not above 0.25.
Turning to TDVK, the enrichment ratio was not above 0.25.
The same measure for KLDS: not above 0.25.
On to ENSC, for which the enrichment ratio was not above 0.25.
As for GRHR, the enrichment ratio was not above 0.25.
FSTS: the enrichment ratio was not above 0.25.
Consider ISMV, for which the enrichment ratio worked out at 7.06.
As for IFAR, the enrichment ratio was not above 0.25.
Take FCNL: the enrichment ratio was not above 0.25.
FDFF: the enrichment ratio was not above 0.25.
On to WVYE, for which the enrichment ratio is not above 0.25.
Take TYYW: the enrichment ratio is not above 0.25.
Consider PSHE, for which the enrichment ratio is not above 0.25.
Turning to PCGM, the enrichment ratio is not above 0.25.
The same measure for GHQT: not above 0.25; for RVKP: not above 0.25; for NVLC: not above 0.25.
Turning to SNAH, the enrichment ratio is 9.84.
On to RATM, for which the enrichment ratio is not above 0.25.
Regarding DFTQ, the enrichment ratio came to 0.858.
Turning to TRHV, the enrichment ratio was not above 0.25.
The same measure for ICID: not above 0.25.
In the case of RMED, the enrichment ratio is not above 0.25.
On to FTSQ, for which the enrichment ratio was not above 0.25.
In the case of HLDD it was not above 0.25; in that of WTWG, not above 0.25; in that of LPQC, not above 0.25.
In the case of WHAV, the enrichment ratio was not above 0.25.
As for SADP, the enrichment ratio was not above 0.25.
Regarding KGHR, the enrichment ratio was not above 0.25.
In the case of AMPE it was not above 0.25; in that of NKDP, not above 0.25; in that of LPSI, not above 0.25.
For the variant SEVM, the enrichment ratio came to 18.7.
For YDEL, the enrichment ratio was not above 0.25.
YRKL: the enrichment ratio is not above 0.25.
The same measure for AKRS: not above 0.25.
On to VDRM, for which the enrichment ratio is not above 0.25.
On to KFRM, for which the enrichment ratio was not above 0.25.
For the variant IDNC, the enrichment ratio is not above 0.25.
On to KHDM, for which the enrichment ratio is not above 0.25.
On to SCYA, for which the enrichment ratio is not above 0.25.
Regarding NWYQ, the enrichment ratio is not above 0.25.
In the case of KMLM it was not above 0.25; in that of FYGR, not above 0.25; in that of EAFD, not above 0.25.
As for QTIR, the enrichment ratio was not above 0.25.
In the case of ICIA, the enrichment ratio is not above 0.25.
Consider RMDE, for which the enrichment ratio was not above 0.25.
Regarding KNFY, the enrichment ratio was not above 0.25.
The same measure for TSVA: 3.47; for NVLK: not above 0.25; for NFWE: not above 0.25.
As for HENK, the enrichment ratio was not above 0.25.
Turning to AQTM, the enrichment ratio was 3.65.
In the case of SHCI it was 6.63; in that of SHCM, 10.8; in that of WQFE, not above 0.25.
For the variant KYVS, the enrichment ratio is not above 0.25.
Turning to WCPK, the enrichment ratio was not above 0.25.
On to WRPM, for which the enrichment ratio was not above 0.25.
In the case of KYRL it was not above 0.25; in that of VFTT, not above 0.25; in that of HQGQ, not above 0.25.
As to ISRM, the enrichment ratio was not above 0.25.
With YCCP, the enrichment ratio was not above 0.25.
For YGDG, the enrichment ratio is not above 0.25.
Regarding YYFS, the enrichment ratio was not above 0.25.
In the case of EDQS it was not above 0.25.
Take TELE: the enrichment ratio is 11.2.
Consider WHTD, for which the enrichment ratio is not above 0.25.
Turning to VHQL, the enrichment ratio was not above 0.25.
In the case of WVMY it was not above 0.25; in that of TMPF, not above 0.25.
With NRSR, the enrichment ratio was not above 0.25.
On to FTHH, for which the enrichment ratio was not above 0.25.
Turning to MFSI, the enrichment ratio was not above 0.25.
YHMP: the enrichment ratio was not above 0.25.
Regarding ASYT, the enrichment ratio is not above 0.25.
EYTE: the enrichment ratio is not above 0.25.
